Experimental findings from patent US20070212355A1 (priority 2005, published 2007) are described below.

The target of data set [1] is T1, mutated human GLP-2R (human, UniProt O95838 1-553).
T1 chain: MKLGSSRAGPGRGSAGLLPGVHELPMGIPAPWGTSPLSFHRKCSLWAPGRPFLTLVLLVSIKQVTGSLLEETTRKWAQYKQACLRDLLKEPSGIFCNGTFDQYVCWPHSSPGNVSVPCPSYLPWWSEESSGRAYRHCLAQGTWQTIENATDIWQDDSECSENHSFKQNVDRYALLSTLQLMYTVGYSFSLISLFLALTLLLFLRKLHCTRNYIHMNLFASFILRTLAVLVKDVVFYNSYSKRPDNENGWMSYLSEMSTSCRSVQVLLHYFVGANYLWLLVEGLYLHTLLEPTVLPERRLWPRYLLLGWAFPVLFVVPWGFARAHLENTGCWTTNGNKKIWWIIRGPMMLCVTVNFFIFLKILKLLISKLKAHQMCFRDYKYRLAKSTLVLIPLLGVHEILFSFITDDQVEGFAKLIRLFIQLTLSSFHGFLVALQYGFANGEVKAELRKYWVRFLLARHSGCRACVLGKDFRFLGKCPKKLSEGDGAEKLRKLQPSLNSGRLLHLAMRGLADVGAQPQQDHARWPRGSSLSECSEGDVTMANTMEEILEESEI
The data set is described as follows: cell-based or functional assay.

For data set [2], the target named is T1, mutated human GLP-2R. Description: cell-based or functional assay.
A short description of data set [3]: SEC-SLS analysis of mimetibodies (monomer/dimer). The format is physicochemical. The note with it: purified from HEK 293E/HEK 293 expression.

Substitutions are numbered along the chain they refer to. Names and notes keep the numbering of the source.

B1: A2G GLP-2 IgG4 mimetibody (Fc fusion)
chain: HGDGSFSDEMNTILDNLAARDFINWLIQTKITDGSGGGSGTLVTVSS[in this place human IgG4 Fc with S228P F234A L235A (EU numbers)]
With B1, in the data set with mutated human GLP-2R [1], the “EC50, cAMP expression” value came to 3.8 nM and the “potency in cAMP expression assay, fold less than the corresponding peptide” value was roughly 4 fold. In addition, the “EC50 (nM), cAMP expression assay” value with mutated human GLP-2R [2] is 5.1 nM.

B2: SEQ ID NO: 75: GLP-2 mimetibody with A2G, L17Q analog (protein)
chain: B1 chain with L17Q
modifications: GLP-2 Mimetibody amino acid sequence with A2G, L17Q mutation
For B2, in data set [3], the “SEC-SLS association state of mimetibody” value was “monomer and dimer mixture”.

B3: SEQ ID NO: 77: GLP-2 mimetibody with A2G, N16G, L17Q analog (protein)
chain: B1 chain with N16G, L17Q
modifications: GLP-2 Mimetibody nucleic acid sequence with A2G, N16G, L17Q mutation
In the case of B3, in data set [3], the “SEC-SLS association state of mimetibody” value is “monomer”.
